PMC12136788
The list shows a part of the results.

B1: chr2:240467638:240467855:+|3pUTR|ENSG00000063660|msi1|FALSE|unique (ssRNA)
RNA: GGGAGUUCUACAGUCCGACGAUCGGACGGAGGUCCCCGGUUGCUGGUCAGGUCCCCAUGGCUUGUUCUCUGGAACCUGACUUUAGAUGUUUUGGGAUCAGGAGCCCCCAACACAGGCAAGUCCACCCCAUAAUAACCCUGCCACAACAGAGGAUUGAGCAUCA
B2: ENSG00000148488:stop:overlap|stop_codon|ENSG00000148488|stop_codon|NA|stop_codon (ssRNA)
RNA: GGGAGUUCUACAGUCCGACGAUCAAGAGUCUAAAGCAAGACAAAAGUGCAAAACAAAAAGAAAAACUAUAAACUCCAUCUUGUAGAUUUGUAGAUUCGCCACAACCAAGUCUGACUGUGACACUCCCAAGAAAUCUGUAUGUACAACAGAGGAUUGAGCAUCA
B3: chr3:31579932:31580050:+|CDS|ENSG00000163527|unk|total|mutant (ssRNA)
RNA: GGGAGUUCUACAGUCCGACGAUCUACAUCUAUAUCUACUUUCCUGCUUACAAGAGAACUUUGGAACCAAGGAGCAGGACUUUCCGCUGCUUGUUUUAUUGCUAUUGUACCAGGCUACAUAUCUCGGUCAGCCGCUGGAUCCUUCAACAGAGGAUUGAGCAUCA
B4: ENSG00000198589:be:win_3851|CDS|ENSG00000198589|bound_else_gene|NA|bound_elsewhere_windowed (ssRNA)
RNA: GGGAGUUCUACAGUCCGACGAUCGGCAAGGAAUAGCACCAGAUGCAGUUAAUGGACAAAGGAGGGAUUCCAGAUCUACUGUGUUUCGUAUUCCUGAGUUCAACUGGUCUCAGAUGCAUCAACGUUUGCUCACUGAUCUAUUAUCAACAGAGGAUUGAGCAUCA
B5: chrX:40074726:40074839:-|CDS|ENSG00000183337|unk|FALSE|unique (ssRNA)
RNA: GGGAGUUCUACAGUCCGACGAUCGCGCUGGGCUUGGACAGGCCUGCCAGCGACAAACAGAGCCCUCUCAACAUCAAUGGUGCUAGUUAUCUGCGGCUGCCCUGGGUCAAUCCUUACAUGGAGGGUGCCACGCCAGCCAUCUACCAACAGAGGAUUGAGCAUCA
B6: chr11:74333230:74333331:-|3pUTR|ENSG00000165434|msi1|total|mutant (ssRNA)
RNA: GGGAGUUCUACAGUCCGACGAUCUGAGUCUUUUAUUGAAGGGUUCAAAGUAAGAAAUACUAUGCCACCGUGUUCUCCAUCUCCCGUGAAGACAGAACCAGAGGGAAUAAGGAUCUUUUUUUUAAAGACAGCAUGGAAAGUUUACAACAGAGGAUUGAGCAUCA
B7: chr8:22006149:22006250:+|3pUTR|ENSG00000130227|msi1|total|mutant (ssRNA)
RNA: GGGAGUUCUACAGUCCGACGAUCGAAUGUAUGAACUGGAGGAAGUUACUACAGUGGAAGGGUUCUUAAUAACAAGGUCUACCCCGCAUGAAGUAUUUAACAUUCUCCCAUCCCUUAAAAAAUAUACAUUUUUAUAAAAUGAAACAACAGAGGAUUGAGCAUCA
B8: chr5:113594843:113594944:+|3pUTR|ENSG00000047188|msi1|FALSE|bound_elsewhere (ssRNA)
RNA: GGGAGUUCUACAGUCCGACGAUCCAACAUAAAAUCUUGAGAACCUUCUACUUUCUCUGGGAAAGCAUUAUAUAGUGGUGCAUUAGUUUAGAAAGUCAGCUAUGAUUUUGCCUAUAGUUCUAGUUAUUAGCUUUGGGGUUUUCUCAACAGAGGAUUGAGCAUCA
B9: ENSG00000034677:stop:overlap|stop_codon|ENSG00000034677|stop_codon|NA|stop_codon (ssRNA)
RNA: GGGAGUUCUACAGUCCGACGAUCCAAAUAACAACCACUCACAUCAGACAAUGGAAUUAAAAGUUGCAAUUCAGACUGAAAUUUAGGCCCAUAAAUGCUGCAGAAUAAUUACCACUGUACAACCGUGUUUGGAGCUGGUUGAACCAACAGAGGAUUGAGCAUCA
B10: chr8:23843870:23844003:-|3pUTR|ENSG00000159167|msi1|total|mutant (ssRNA)
RNA: GGGAGUUCUACAGUCCGACGAUCAAUUCCAGAGGACUCUGCUUAAACAAAGCAGUAUAUAAUAACUUUAUUGCAUACCGAUUCCGUUUUGUAACUCCGCUUUAUUUUUCUUUUCCUGGGAAUGGAAUAACUAUCUCACUUCCACAACAGAGGAUUGAGCAUCA
B11: chr15:34978960:34979061:-|3pUTR|ENSG00000198146|msi1|FALSE|unique (ssRNA)
RNA: GGGAGUUCUACAGUCCGACGAUCGCCCUCUGUAUCCAUGUACUCUGCAUCUGUGGAUUAAACCAAUUGCAGAUCAAAAAUAUUAGAAAAAAUAAAAAUAAUACAAAUAAAAAUACAGUAUAACAGUUAUUUAAAUAGCAUUUACAACAGAGGAUUGAGCAUCA
B12: chr2:96875881:96876275:-|three_prime_utr|ENSG00000168754|control|control|control (ssRNA)
RNA: GGGAGUUCUACAGUCCGACGAUCUCGCCCACCCCUCAGCCCUCCUCCCAGCCAUCUCCUCUUCCCUAAGGCCUCUGUCUCCAUAGCUCUGGUUUCCCUGGGCCUCAGUCCUCCCCACCCUCCUUCCUCUGUCUCCCUGUCACUCAACAGAGGAUUGAGCAUCA
B13: chr1:9850293:9850394:-|3pUTR|ENSG00000178585|unk|total|mutant (ssRNA)
RNA: GGGAGUUCUACAGUCCGACGAUCCGGUAUCUGGCUUCCCUGGAAGCUCUCCGAGCUCUGGUGCUUCCGUCCGGUCAUUUUUUCCGAAAUGUGAAGAGGUCUGAUUGGCUGCUUAAACUGGAAAGGAUCUGUGAUUGGCUGGUUCAACAGAGGAUUGAGCAUCA
B14: ENSG00000198589:be:win_851|CDS|ENSG00000198589|bound_else_gene|NA|bound_elsewhere_windowed (ssRNA)
RNA: GGGAGUUCUACAGUCCGACGAUCAAGGCUUUCAACACUGUGUGAAAUUUGAUUUCAAGCCACAAAAGUGGUAUAUGGUUACCAUAGUACACAUCUAUAACCGAUGGAAGAAUAGUGAACUUCGAUGUUAUGUGAAUGGUGAGCCAACAGAGGAUUGAGCAUCA
B15: chr8:41263332:41263433:-|3pUTR|ENSG00000104332|msi1|total|mutant (ssRNA)
RNA: GGGAGUUCUACAGUCCGACGAUCCAGCAUGCCCGCCCCGUUACCUACCGGAGAGUUAUCCUGAUAAAUUAACCUCUCACAGUCCGUGAUCCUGUCCUUUUAACACCUUUUUUGUGGGGUUCUCUCUGACCUUUCAUCGUAAAGCAACAGAGGAUUGAGCAUCA
B16: chr6:150018333:150018855:-|three_prime_utr|ENSG00000155918|control|control|control (ssRNA)
RNA: GGGAGUUCUACAGUCCGACGAUCACCACCUACGGUGUAUGUCCAGCAGCCUCCAGCAGAUGAUGAUGACACCAUGGACCCAAUAGCUCAUUCACUGCCUUGAUUCCUUUUGCCAACAAUUUAACCAGUGAUUAUUCCUAACAUCAACAGAGGAUUGAGCAUCA
B17: chr10:60026297:60029826:-|three_prime_utr|ENSG00000151150|control|control|control (ssRNA)
RNA: GGGAGUUCUACAGUCCGACGAUCAAUGGCAUGAUUUUUUUUAUGCAAAAAGAAAAGAAAAGAAAACCACCCACAUUUUAAUUUAGCAUGAGCCAAUUUACAGAGCAUGGAAAUCACUUUCAUUUCCGGAUUGGCGCGUGUGCACAACAGAGGAUUGAGCAUCA
B18: chr13:106491723:106491923:-|3pUTR|ENSG00000125266|msi1|FALSE|unique (ssRNA)
RNA: GGGAGUUCUACAGUCCGACGAUCCAGACUCAGCUGCUAUACUUAUCACAUUUUAUUAAACACAGGGAAAGCAUUUAGGAGAAUAGCAGAGAGCCAAAUCUGACCUAAAAGUUGAAAAGCCAAAGGUCAAACAGGCUGUAAUUCCAACAGAGGAUUGAGCAUCA
B19: ENSG00000105894:stop:overlap|stop_codon|ENSG00000105894|stop_codon|NA|stop_codon (ssRNA)
RNA: GGGAGUUCUACAGUCCGACGAUCCCAAACCUCAAGAGAAGGGAAAAUGGAGACACAGGAGUGGGGAGAGUUUGAGAAGAUGGUAGAGAGGAGUGUUUGGGUGAAGGGAGAUGGAUUCGUCUACUGAUGCAACUGCAGAAUCUACAACAGAGGAUUGAGCAUCA
B20: chr1:232398519:232398625:-|3pUTR|ENSG00000116991|unk|FALSE|unique (ssRNA)
RNA: GGGAGUUCUACAGUCCGACGAUCACAGUAGUUUUAUUUCCACAGCCACAUUACCAUAGCAAUAAGAAAGGAGGCAUAGUACAUAGUUGGAAAAGCUUUGUGGGGGGAUUAAAAAAAAAAAAAAGCACUGUUGUGUUUAACACUCAACAGAGGAUUGAGCAUCA
B21: ENSG00000163346:stop:overlap|stop_codon|ENSG00000163346|stop_codon|NA|stop_codon (ssRNA)
RNA: GGGAGUUCUACAGUCCGACGAUCAGAGCCUGCCUUCAACCCCCAAAGCAGUCACCUCACUGCCCUGUCCCUGUCCUUUCCCCUAGCUUGGAUCAGGGAGGAGGGCCGCUGCUCCAGCAGUGACGAUGACACCGACGUGGACAUCAACAGAGGAUUGAGCAUCA
B22: chr17:35577220:35577322:-|CDS|ENSG00000108733|unk|total|mutant (ssRNA)
RNA: GGGAGUUCUACAGUCCGACGAUCUCUAUUAUGUUCCUGGUUCUUCUUCCCUAUCUGAAAGUGAAGCUGGAGAAGCUGGUUUCCCGCCUGAGAGAAGAGGAUGAAUAUUCUAUUCAUCCCCCUUCUUCCCGCUGGAAACGAUUUCAACAGAGGAUUGAGCAUCA

Target: MSI1 full-length (mouse, UniProt Q61474 1-362)
Sequence of UniProt Q61474 (Q61474 whole entry): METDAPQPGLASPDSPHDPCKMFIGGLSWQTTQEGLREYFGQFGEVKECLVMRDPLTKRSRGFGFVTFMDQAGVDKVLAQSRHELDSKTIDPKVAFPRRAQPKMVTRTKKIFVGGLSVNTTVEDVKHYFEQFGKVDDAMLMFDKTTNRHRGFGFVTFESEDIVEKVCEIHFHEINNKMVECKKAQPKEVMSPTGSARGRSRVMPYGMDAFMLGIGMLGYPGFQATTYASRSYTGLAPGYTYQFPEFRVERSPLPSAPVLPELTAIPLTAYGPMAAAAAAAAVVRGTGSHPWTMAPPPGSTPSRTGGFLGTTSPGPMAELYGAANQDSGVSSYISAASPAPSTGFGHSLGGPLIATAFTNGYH
Test: nsRBNS (natural sequence RNA bind-n-seq); RBNS binding buffer (assumed for nsRBNS): 25 mM Tris pH 7.5, 150 mM KCl, 3 mM MgCl2, 0.01% Triton X-100, 500 ug/ml BSA, 20 U/ml SUPERase-In, 4 C; UNK is unkempt and MSI1 is Musashi-1; names of the RNAs are library labels; protein concentration not given here; high values mean tight binding

Row | Binder | binding signal [enrichment R]
1 | B1 | 0.416
2 | B2 | 0.278
3 | B3 | 0.55
4 | B4 | 0.336
5 | B5 | 0.462
6 | B6 | 0.233
7 | B7 | 0.38
8 | B8 | 31.3
9 | B9 | 0.506
10 | B10 | 0.46
11 | B11 | 14.7
12 | B12 | 1.39
13 | B13 | 0.339
14 | B14 | 0.419
15 | B15 | 0.727
16 | B16 | 0.42
17 | B17 | 0.263
18 | B18 | 3.84
19 | B19 | 0.516
20 | B20 | 18.4
21 | B21 | 0.512
22 | B22 | 0.307
